These results are taken from PubChem BioAssay AID1963576 (National Center for Advancing Translational Sciences (NCATS), 2024).

Molecules are shown by their SMILES. Hit rate of the full screen: of about 46,000 compounds, about 60 (0.1%) were called active. About 3% were inconclusive and are not listed. Calls come from the whole dose curve; as a rule, active = well fitted inhibition curve with a large enough effect; inconclusive = small, poorly fitted or top-dose-only effect; inactive = no such curve, though single readings can be large or run the other way. The list shows a part of the results.

This assay in a line: Primary qHTS assay for Inhibitors of ovarian cancer metastasis using an organotypic tumor microenvironment (TME) model.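 For activity change, negative = inhibition: plate controls were DMSO wells for no effect and tomatine positive control wells for full effect.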 Note: nearly all actives have a fitted effect of over 65% in size. The following applies: SKOV3ip1-GFP adhesion/invasion on 3D omental model, fluorescence; series mostly up to 45.8 µM; activity change, negative = inhibition: at the top concentration. Summed up:
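Primary human omental fibroblast/mesothelial 3D culture pre-formed 48 h. SKOV3ip1-GFP cells added with compounds (0.36-46 umol/L), incubated 2 h RT/16 h 37 C, fixed; GFP cells quantified at 488/509 nm.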
A general note: In qHTS, concentration-response curves come from the screen itself.
With `CCOc1ccc(C(=O)NCC(c2ccco2)S(=O)(=O)c2cccs2)cc1` (stereo not drawn), the “activity change, negative = inhibition” value is inactive: -15.3%. For `Cc1ccccc1NC(=O)Cn1c(=O)n(Cc2ccccc2)c(=O)c2sc3ccccc3c21`, the outcome was inactive. On to `COC(=O)c1ccc(C(=O)OC)c(NC(=O)c2cnn3c(C(F)F)cc(-c4ccccc4)nc23)c1`, for which the “activity change, negative = inhibition” value was inactive: 2.01%. Turning to `Cc1ccccc1-c1nn2c(=O)cc(CN3CCN(S(=O)(=O)c4ccc(Cl)cc4)CC3)nc2s1`, the result was inactive.

Consider `Cc1nn(-c2ccc(N3CCCC3)nn2)c(C)c1CCC(=O)N1CCN(c2ccccc2)CC1`, for which the “activity change, negative = inhibition” value is inactive: 7.73%. On the same count and under the same terms, for `CCN(Cc1ccccc1)C(=O)c1nn(-c2ccc(OC)cc2)c(=O)c2c1c1ccccc1n2C` the value was inactive: 1.59%. As for `COc1ccc2c(C)c(CCC(=O)NCc3ccc(Cl)cc3)c(=O)oc2c1C`, the compound was classed as inactive. With `COC(=O)C(NC(=O)CCc1c(C)nc2c(c(C)nn2-c2ccccc2)c1C)C(C)C` (stereo not drawn), the result was inactive. Same read-out and setting: for `CCc1ccc(S(=O)(=O)Nc2ccc(-c3ccc(N4CCCC4)nn3)cc2)cc1` the value was “inactive”. Same read-out and setting: to `Cc1ccccc1NC(=O)[C@H](CSCc1ccccc1)N1Cc2ccccc2C1=O` belongs “inactive”. Turning to `CCC1CN(C(=O)Nc2ccc(Br)cc2F)c2ccccc2S1` (stereo not drawn), the “activity change, negative = inhibition” value was inactive: 4.38%. As for `CCOc1ccc(OCC)c(NC(=O)CCc2nc3cccnc3n2-c2ccccc2)c1`, the “activity change, negative = inhibition” value was inactive: -14.9%. `COc1ccccc1N1CCN(C(=O)CSc2n[nH]c(-c3ccccc3Cl)n2)CC1`: the “activity change, negative = inhibition” value is inactive: -2.13%.

Regarding `O=C(NCC(c1ccc(Cl)cc1)N1CCCCC1)c1ccccc1F` (stereo not drawn), the “activity change, negative = inhibition” value is inactive: -2.92%. On the same count and under the same terms, to `COc1ccc(NC(=O)Cn2c(=O)n(-c3cccc(C(F)(F)F)c3)c(=O)c3sccc32)cc1` belongs inactive: 0.279%; to `CCCOc1ccc(CNC(=O)C2CCCN(c3nc4c(C)cc(C)cc4s3)C2)cc1` (stereo not drawn), inactive: 9.57%. On to `O=C(NCc1ccc(F)cc1)c1cnc(N2CCCCC2)c2ccccc12`, for which the “activity change, negative = inhibition” value was inactive: 9.47%. For the compound `CCN(CC)C(=O)C1CCN(c2nnc(C)c3c(C)n(-c4ccc(Cl)cc4)nc23)CC1`, the “activity change, negative = inhibition” value was inactive: -3.02%. Same read-out and setting: for `C#CCn1c(C2CC(=O)N(c3ccc(OCC)cc3)C2)nc2ccccc21` (stereo not drawn) the value was inactive: -3.95%.

With `COc1cc(OC)cc(C(=O)Nc2ccc3nc(Nc4cccc(C(F)(F)F)c4)cc(C)c3c2)c1`, the “activity change, negative = inhibition” value was inactive: -17.3%. As for `COc1ccc(C(=O)Nc2nnc(C)s2)cc1`, the “activity change, negative = inhibition” value is inactive: -6.14%. For the compound `CC(C)Cn1c(=O)c2ccccc2n2c(CCC(=O)N3CCN(c4ccccc4)CC3)nnc12`, the “activity change, negative = inhibition” value is inactive: 19.8%. Turning to `CCCCOC(=O)CSc1nnc(-c2ccc(C)cc2)o1`, the compound was classed as inactive. For `COc1cc(OC)c(NC(=O)N2CCc3cc(OC)c(OC)cc3C2CC(=O)O)cc1Cl` (stereo not drawn), the “activity change, negative = inhibition” value is inactive: 5.98%. The same measure, in the same setting: to `COc1ccc(N2CCN(c3ncnc4onc(-c5ccc(F)cc5)c34)CC2)cc1` belongs inactive: 1.02%; to `Cc1ccc(CCNC(=O)c2ccc3c(c2)N(Cc2ccccc2)C(=O)c2ccccc2S3=O)cc1` (stereo not drawn), inactive: 6.01%. Same read-out and setting: for `COc1ccc(NC(=O)Cn2c(=O)n(CCCC(=O)NCCc3ccc(C)cc3)c(=O)c3ccccc32)cc1Cl` the value was inactive: -9.54%.

With `Cc1cccc(NC(=O)c2ccc(F)c(S(=O)(=O)N3CCC4(CC3)OCCO4)c2)c1`, the compound was called inactive.

In the case of `CC(=O)N1CCc2c(sc3c2c(=O)n(CCc2ccccc2)c(=O)n3CC(=O)Nc2ccc(C)c(F)c2)C1`, the “activity change, negative = inhibition” value is inactive: -7.51%. The same measure, in the same setting: for `COc1cccc2c1Oc1ncccc1N(c1ccc(C(=O)NCc3ccccc3Cl)s1)C2` the value was inactive: 9.61%; for `O=C(CSc1nnc(-c2ccc(Cl)cc2)o1)Nc1ccc(F)cc1`, inactive: 2.63%.

`Nc1nc(Cl)nc2c1ncn2[C@@H]1O[C@H](CO)[C@@H](O)[C@H]1F`: the “activity change, negative = inhibition” value was inactive: -2.91%.

As for `COc1ccc(Nc2cc(C)nc3c(C)c(C)ccc23)cc1`, the “activity change, negative = inhibition” value is inactive: 5.39%.

For the compound `Cc1ccn2c(Nc3ccc4c(c3)OCCO4)c(-c3cccs3)nc2c1`, the “activity change, negative = inhibition” value was inactive: -16.6%. For `Cc1ccc2c(c1)Cc1c(nc(-c3ccc(Cl)cc3)nc1SCC(=O)N1CCCCC1)O2`, the “activity change, negative = inhibition” value was inactive: 11.3%. For the compound `Cc1ccc2onc(CNC(=O)Nc3cc(F)ccc3F)c2c1`, the “activity change, negative = inhibition” value was inactive: -2.3%. As for `Cc1ccc(NC(=O)C(CC(C)C)NS(=O)(=O)c2ccc3c(c2)oc(=O)n3C)c(C)c1` (stereo not drawn), the result was inactive.

Regarding `Cc1ncc(-c2ccnc(Nc3ccc(S(C)(=O)=O)cc3)n2)n1C(C)C`, the “activity change, negative = inhibition” value is inactive: 6.8%. For the compound `Cc1ccc(Cl)cc1NC(c1ccc(F)cc1)c1nnc(-c2ccccc2)o1` (stereo not drawn), the “activity change, negative = inhibition” value is inactive: 0.314%.

As for `Cc1ccc(C)c(S(=O)(=O)c2nnn3c2nc(N2CCN(C)CC2)c2sccc23)c1`, the “activity change, negative = inhibition” value was inactive: -4.91%. Consider `COc1ccc(CC(=O)NCC(c2cccs2)S(=O)(=O)c2ccc(F)c(C)c2)cc1` (stereo not drawn), for which the “activity change, negative = inhibition” value is inactive: -3.63%. Consider `CC(=O)Nc1ccc(NC(=O)CN(C)S(=O)(=O)c2ccc3c(c2)CCCC(=O)N3)cc1`, for which the compound was classed as inactive. For the compound `O=c1c2cc3c(cc2nc2sc(Nc4cccc([N+](=O)[O-])c4)nn12)OCO3`, the “activity change, negative = inhibition” value is inactive: 0.241%. On to `CCCCN(C(=O)C1CCC(CNS(=O)(=O)c2cccc3nsnc23)CC1)c1ccccc1` (stereo not drawn), for which the “activity change, negative = inhibition” value is inactive: 0.347%. For the compound `CC(=O)Nc1cc(C(=O)NCc2ccc(F)cc2)ccc1Sc1ccc(F)cc1`, the “activity change, negative = inhibition” value is inactive: -6.73%. Still for that read-out and setting: to `Cc1cc2oc(=O)c(CC(=O)NCCc3ccccc3F)c(C)c2c2occ(C(C)(C)C)c12` belongs inactive: 1.53%.

As to `CCOC(=O)c1c(NC(=O)c2ccc(OCC)c(Br)c2)sc2c1CCCC2`, the call was inactive. Consider `COc1c(N2C[C@@H]3CCCN[C@H]3C2)c(F)cc2c(=O)c(C(=O)O)cn(C3CC3)c12`, for which the “activity change, negative = inhibition” value is inactive: -9.1%.
